In publication PMC7819943, “Rice protein-binding microarrays: a tool to detect cis-acting elements near promoter regions in rice”:
The list shows a part of the results.

What follows are sequences tested against T1, OsWOX13 (Oryza sativa, UniProt Q5QMM3 1-267) (assay: protein-binding microarray (RPBM); PBS, 2% BSA, 51.3 ng/ul salmon testes DNA, 50 uM zinc acetate, 200 nM TF, 25 C, 1 h; high values mean tight binding). Details: protein: recombinant; tags: N-terminal polyhistidine and DsRed monomer fusion (pET32a); label: CyDye5-dUTP incorporated in the synthesized complementary strand; 3' TTTTT single-stranded linker to array surface; dsDNA, one strand shown.
T1 sequence: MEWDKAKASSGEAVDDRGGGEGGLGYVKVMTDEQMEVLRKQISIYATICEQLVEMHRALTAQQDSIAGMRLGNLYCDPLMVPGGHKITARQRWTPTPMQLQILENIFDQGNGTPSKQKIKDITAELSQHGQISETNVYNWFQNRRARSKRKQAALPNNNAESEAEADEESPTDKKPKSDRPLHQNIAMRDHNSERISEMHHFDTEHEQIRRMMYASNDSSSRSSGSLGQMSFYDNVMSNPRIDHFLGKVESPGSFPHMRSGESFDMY
Procedure, shortened: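 The binding signal for each feature is its fluorescence intensity in arbitrary units. An Axon 4000B scanner was used to read a custom Agilent array that had been made double-stranded with Cy5-dUTP primer extension, blocked with 2% BSA, incubated at 25 °C for 1 h with 200 nM protein in PBS, 2% BSA, salmon testes DNA and 50 µM zinc acetate, and washed. The protein was an N-terminal polyhistidine–DsRed transcription factor fusion from E. coli BL21-CodonPlus, purified on Ni–NTA.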

Sequence	binding signal
CGACCTGAGCCAGAAATTTAATTGATATTTCTTCCTTCGTCGGAGTCACCTAGTGCAG	7400 fluorescence intensity (a.u.)
TTGTAATTGATTGTGGCCCATCAACTATTGCCATCACTGGCGGAGTCACCTAGTGCAG	64900 fluorescence intensity (a.u.)
ACTATAATGTAATTTGTACTATAGTGTAATTAAACTGTATCGGAGTCACCTAGTGCAG	14700 fluorescence intensity (a.u.)
AACGATGATTGAGCAAGGATCGAAAAGTATATCTTTCTATCGGAGTCACCTAGTGCAG	17700 fluorescence intensity (a.u.)
TTATAGTACTATTAATCAATTATTACTAAATGACGCCGATCGGAGTCACCTAGTGCAG	10200 fluorescence intensity (a.u.)
CTTTTAAATGTAGTATAATTATATTATAACTAATAACTAGCGGAGTCACCTAGTGCAG	18300 fluorescence intensity (a.u.)
TATCATTTGATTTATTGTTAAATATTTGATTCATTGTTAACGGAGTCACCTAGTGCAG	7440 fluorescence intensity (a.u.)
CCATTGATTGCTGCAGTTCAGCGTAGCCCCGTCGTTCAAGCGGAGTCACCTAGTGCAG	39600 fluorescence intensity (a.u.)
GATAATTTTGATATGGTAATTGCTTAGGTTGTGCATAGCTCGGAGTCACCTAGTGCAG	47600 fluorescence intensity (a.u.)
TGGAATTCATCTAATTATATCATTTTCCTCCATACTAGCTCGGAGTCACCTAGTGCAG	3430 fluorescence intensity (a.u.)
GTCATTCTAATTATATCGTTATATTCATTATAATTATTTTCGGAGTCACCTAGTGCAG	8450 fluorescence intensity (a.u.)
CATACTACCAACCAATTAGTGCTAATAGGTAGCATTTTCTCGGAGTCACCTAGTGCAG	5850 fluorescence intensity (a.u.)
TGGTATTTAATTATTTGTTAGAGTCATCATTGGTCTATAACGGAGTCACCTAGTGCAG	8940 fluorescence intensity (a.u.)
TCTAGCTATTAATTTGCTCTCATTTATAACTTAGCCGCTACGGAGTCACCTAGTGCAG	6390 fluorescence intensity (a.u.)
TGTTAATCAACAAATCAATTTTAATTAGGGCTTTGTTCGACGGAGTCACCTAGTGCAG	46800 fluorescence intensity (a.u.)
ATCTATCATTAACTCTCTGATTACCAGTACTAGCGCACTACGGAGTCACCTAGTGCAG	19000 fluorescence intensity (a.u.)
TATCTAATTGCGAGAGTGAGCGTGAGCGTAGCCGGCCTTGCGGAGTCACCTAGTGCAG	11400 fluorescence intensity (a.u.)
AATAAATGGAGTTTTGTATAATCTGGTCGCCATCAGAGAACGGAGTCACCTAGTGCAG	4460 fluorescence intensity (a.u.)
TCCTAAAACGATAATTTTGTCAAATTTTCGGGGTTATTAGCGGAGTCACCTAGTGCAG	6660 fluorescence intensity (a.u.)
AACTGATTAAGTAGAATACCTTGACTAGGATGCTGATATTCGGAGTCACCTAGTGCAG	8580 fluorescence intensity (a.u.)
CAGTTTCAATCAATCAAGTGGTTGGCAGAGGAATTTAAGCCGGAGTCACCTAGTGCAG	42900 fluorescence intensity (a.u.)
TGGACCCGATTGATAGGAAACGATAGGCAAATAAACATAACGGAGTCACCTAGTGCAG	6110 fluorescence intensity (a.u.)
TCTCTTGATAAGTATAATTATTTTCTAGTTAATCACACTACGGAGTCACCTAGTGCAG	13500 fluorescence intensity (a.u.)
TTGTAATAATTAAAGCTTAATTAATTACTCTCTCCATTCTCGGAGTCACCTAGTGCAG	18000 fluorescence intensity (a.u.)
CTCATTAATCTTGCTCATTAATCTTGCAATTAATCCAGAACGGAGTCACCTAGTGCAG	4900 fluorescence intensity (a.u.)
TGTTTAATGATTTGGGAAGCATGTATGAAGCTACAGGAAGCGGAGTCACCTAGTGCAG	14700 fluorescence intensity (a.u.)
TTTAATTTTGTGGTTCTTGTCAATGTAACACAACAGTAAGCGGAGTCACCTAGTGCAG	3320 fluorescence intensity (a.u.)

Sequence	binding signal
CAGTATAGACAGAACCTTAATGGAAAAGGAATCTAGACAGCGGAGTCACCTAGTGCAG	12400 fluorescence intensity (a.u.)
ATTAACTGAACTAACAACCCCGCTACTCATACGATCCCGCCGGAGTCACCTAGTGCAG	14000 fluorescence intensity (a.u.)
AGAATCTCAATCAGTTACTAATTGTGGAGATTGTATTAGGCGGAGTCACCTAGTGCAG	24600 fluorescence intensity (a.u.)
GGCTGACTGCAGTTCTGCCGTAAGTAAAATGGTGATCAAACGGAGTCACCTAGTGCAG	3610 fluorescence intensity (a.u.)
GCTGATTTTGACAATAAGTGAATAAGGTTTTAATTTCTCGCGGAGTCACCTAGTGCAG	22500 fluorescence intensity (a.u.)
GAAGAGCCAATCTTATAGCTAATTTATTATATATGTTGGCCGGAGTCACCTAGTGCAG	6300 fluorescence intensity (a.u.)
TTTATATTGATGTAACCGATTCAAACACTTACGACATGGGCGGAGTCACCTAGTGCAG	11400 fluorescence intensity (a.u.)
CCTCATGATTTACCCTAATAGCGATCATAGTGCTTCACTTCGGAGTCACCTAGTGCAG	16900 fluorescence intensity (a.u.)
ACAAAATTTATATACGCTTATACAAACTTTGTGTATGTGTCGGAGTCACCTAGTGCAG	4170 fluorescence intensity (a.u.)
CCAACAAATTGGACCTTAATGAAGCTCCACTTGTGACAACCGGAGTCACCTAGTGCAG	30300 fluorescence intensity (a.u.)
AATAATTAAAACTCAATTAATCACAAGTTATTACCACCTCCGGAGTCACCTAGTGCAG	30800 fluorescence intensity (a.u.)
TACAATTGAATAATCACCAATTCACCATCAAGAAAATCAGCGGAGTCACCTAGTGCAG	19800 fluorescence intensity (a.u.)
GCATTATTCGTCTATCCATTTTCTCCCATGCTAAATCCAACGGAGTCACCTAGTGCAG	3240 fluorescence intensity (a.u.)
CAAGTTTAGATGACTGATAGATAAGAAAAGCCAGGCAACTCGGAGTCACCTAGTGCAG	9830 fluorescence intensity (a.u.)
TCCATAATTATATTTCAATTATATATACTTGCACAAAATTCGGAGTCACCTAGTGCAG	20400 fluorescence intensity (a.u.)
TTTCCAGATGGATTGCAAACTGTATTGACTATTGAGCAAGCGGAGTCACCTAGTGCAG	4090 fluorescence intensity (a.u.)
TAATTTAATAGCCAATTCATACAATTGCCTATTATCTGGTCGGAGTCACCTAGTGCAG	5900 fluorescence intensity (a.u.)
CCCCGAGACATCGTGCCGGTGATTGCTCGTGATGTGCAATCGGAGTCACCTAGTGCAG	5800 fluorescence intensity (a.u.)
GGAGATTGTTGAATGGTTCCATATTGGTTGTAGAAGGACTCGGAGTCACCTAGTGCAG	4100 fluorescence intensity (a.u.)
CTCTATTTAAAATTTTCTTTCACCCATGAGTTCTTATATTCGGAGTCACCTAGTGCAG	3310 fluorescence intensity (a.u.)
CGTATTGATAGTGTGTGAGAGACTGGGTTTGGTGTTTCATCGGAGTCACCTAGTGCAG	3440 fluorescence intensity (a.u.)
TGGGGAGGGGAGGGAGAGGTGTCGTCAACAGGGAGGGAGGCGGAGTCACCTAGTGCAG	3570 fluorescence intensity (a.u.)
TTAATTTGCATGTTTGTGGATTGATATATTACATATTGATCGGAGTCACCTAGTGCAG	19500 fluorescence intensity (a.u.)
AATGTGAGCATGTGATTTAAATTTGAGAAAATTCAACTTGCGGAGTCACCTAGTGCAG	3660 fluorescence intensity (a.u.)
TGGATGAAAATTTTCCTATAATTATTCCTCTACAACTTATCGGAGTCACCTAGTGCAG	8310 fluorescence intensity (a.u.)
GGGTGTTGATAGCACAGATGATTGGATTAATTCCTTGCCTCGGAGTCACCTAGTGCAG	32500 fluorescence intensity (a.u.)
ATATAATTGTCACAAACGAAAGATGAGGGAGGGCAAATAGCGGAGTCACCTAGTGCAG	13900 fluorescence intensity (a.u.)
